This is one part of the list. Sequences were assembled here from the parent chain. Values near 0.05 are background.
B1: TEV protease; numbered along this chain (parent)
chain: MGESLFKGPRDYNPISSSICHLTNESDGHTTSLYGIGFGPFIITNKHLFRRNNGTLVVQSLHGVFKVKDTTTLQQHLVDGRDMIIIRMPKDFPPFPQKLKFREPQREERICLVTTNFQTKSMSSMVSDTSCTFPSGDGIFWKHWIQTKDGQCGSPLVSTRDGFIVGIHSASNFTNTNNYFTSVPKNFMELLTNQEAQQWVSGWRLNADSVLWGGHKVFMVKPEEPFQPVKEATQL

Variants of: B1
Experiment: raw area under fraction-flipped curve 0-4 h after induction (AUC4h, not background-subtracted), DNA-recorder readout of cleavage of the substrate (dimensionless); higher = more cleavage of the substrate by the protease variant
Conditions: temperature: 34 °C; time window: 0-4 h after rhamnose induction
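Also: Bxb1 expression induced with 0.2% (w/v) L-rhamnose at OD600 near 0.5, cultures sampled hourly, flipped fraction per protease–substrate barcode pair counted by paired-end Illumina sequencing.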

Variant | area with substrate EALYFQS | area with substrate ECLYFQS | area with substrate EELYFQS | area with substrate EGLYFQS | area with substrate EILYFQS | area with substrate EKLYFQS | area with substrate ELLYFQS | area with substrate EMLYFQS | area with substrate EPLYFQS | area with substrate EWLYFQS | area with substrate EQLYFQS | area with substrate ERLYFQS | area with substrate ESLYFQS | area with substrate ETLYFQS | area with substrate EVLYFQS | area with substrate EFLYFQS | area with substrate EHLYFQS | area with substrate EYLYFQS | area with substrate EDLYFQS
P222I | 0.106 | 0.105 | 0.102 | 0.0869 | 0.0638 | 0.104 | 0.0495 | 0.0936 | 0.11 | 0.0535 |  |  |  |  |  |  |  |  | 
E223N | 0.0956 |  | 0.144 |  | 0.0804 |  |  | 0.0975 | 0.121 |  | 0.12 | 0.105 | 0.0933 |  |  |  |  |  | 
E223Y | 0.115 | 0.102 |  | 0.0854 |  |  |  | 0.113 | 0.111 |  | 0.0918 | 0.0847 | 0.107 | 0.0607 | 0.0968 |  |  |  | 
P225C | 0.109 |  | 0.0934 | 0.0773 | 0.0919 | 0.0962 |  | 0.103 |  | 0.0962 | 0.108 | 0.0858 | 0.0854 | 0.124 | 0.0984 | 0.0803 | 0.126 |  | 
P225K | 0.115 |  | 0.123 | 0.0989 | 0.0904 | 0.121 |  |  |  |  | 0.0847 | 0.116 | 0.108 | 0.105 |  | 0.101 |  | 0.0894 | 
F226E | 0.185 | 0.119 |  | 0.102 |  |  | 0.114 | 0.101 |  | 0.0858 |  | 0.106 | 0.0464 | 0.126 | 0.158 |  | 0.111 |  | 0.142
F226G | 0.131 | 0.124 |  | 0.0839 | 0.0766 | 0.101 | 0.109 | 0.112 |  |  |  | 0.129 | 0.0727 |  | 0.108 | 0.138 | 0.0856 |  | 
F226Q | 0.11 |  | 0.143 | 0.115 |  | 0.109 | 0.0899 | 0.132 |  |  |  | 0.131 | 0.0986 |  |  | 0.181 |  | 0.105 | 
Q227W | 0.1 | 0.102 |  | 0.0658 | 0.0817 | 0.114 |  |  |  | 0.0784 |  | 0.126 | 0.0994 |  | 0.0672 |  |  | 0.0975 | 0.12
V229E | 0.126 |  |  |  |  |  | 0.0822 |  | 0.131 | 0.107 |  |  | 0.107 | 0.118 | 0.0888 |  |  | 0.13 | 0.146
V229K | 0.119 |  | 0.134 | 0.121 | 0.0871 |  | 0.117 | 0.129 | 0.128 | 0.0978 | 0.101 | 0.119 | 0.127 |  |  | 0.0979 | 0.127 | 0.108 | 0.129
V229Q | 0.113 | 0.107 |  | 0.0985 | 0.102 | 0.102 | 0.117 | 0.0996 |  | 0.088 |  |  | 0.0944 | 0.119 | 0.0921 |  | 0.0883 |  | 
K230S | 0.113 |  |  | 0.0932 |  | 0.111 | 0.112 | 0.134 |  | 0.0942 | 0.123 |  | 0.116 | 0.125 | 0.088 | 0.141 |  | 0.129 | 0.137
E231N | 0.0991 |  |  |  | 0.0874 |  | 0.0828 | 0.125 |  | 0.101 |  |  | 0.0921 | 0.118 | 0.109 |  |  | 0.117 | 0.137
E231V | 0.129 | 0.11 | 0.126 |  | 0.0715 |  | 0.115 | 0.117 | 0.124 |  | 0.119 | 0.0959 | 0.117 |  | 0.0876 |  |  |  | 
T233E | 0.112 |  |  | 0.101 | 0.1 | 0.134 |  |  |  |  |  | 0.0953 | 0.0979 |  |  |  | 0.105 |  | 
T233M | 0.104 |  | 0.102 | 0.107 | 0.0871 |  | 0.102 | 0.0924 | 0.056 |  |  | 0.0834 | 0.0945 | 0.144 | 0.0951 |  | 0.0976 | 0.0849 | 0.138
T233Q | 0.153 | 0.114 |  | 0.109 | 0.0855 |  |  |  |  |  |  | 0.0985 |  | 0.113 | 0.127 |  |  | 0.124 | 
Q234S | 0.0862 | 0.0976 | 0.0919 |  | 0.1 | 0.0906 |  | 0.137 | 0.109 |  | 0.115 |  | 0.113 | 0.117 | 0.117 |  | 0.0992 |  | 
Q234T | 0.114 |  | 0.109 | 0.125 | 0.0839 |  | 0.0959 | 0.124 | 0.107 | 0.097 | 0.113 | 0.106 | 0.115 |  | 0.0792 | 0.0874 |  |  | 0.107
Q234V | 0.0848 |  | 0.101 |  | 0.101 |  | 0.0981 |  |  | 0.0804 |  | 0.0598 | 0.0767 |  | 0.0772 |  |  | 0.0691 | 
L235E | 0.137 | 0.106 |  |  |  |  |  |  |  | 0.0724 |  |  | 0.104 |  |  |  |  |  | 
L235Q | 0.107 | 0.0987 |  |  | 0.0916 | 0.0974 |  | 0.114 | 0.159 |  | 0.149 |  | 0.122 |  | 0.111 | 0.133 | 0.121 | 0.0995 | 

Reference: the supplement of paper PMC12217912
